Reference: the BET-seq Pho4 binding data (Le et al. 2018)
This is one part of the list. These are noisy estimates, calculated here from bound and input reads.

Target: T1, Pho4 (S. cerevisiae) (UniProt P07270)
T1 sequence: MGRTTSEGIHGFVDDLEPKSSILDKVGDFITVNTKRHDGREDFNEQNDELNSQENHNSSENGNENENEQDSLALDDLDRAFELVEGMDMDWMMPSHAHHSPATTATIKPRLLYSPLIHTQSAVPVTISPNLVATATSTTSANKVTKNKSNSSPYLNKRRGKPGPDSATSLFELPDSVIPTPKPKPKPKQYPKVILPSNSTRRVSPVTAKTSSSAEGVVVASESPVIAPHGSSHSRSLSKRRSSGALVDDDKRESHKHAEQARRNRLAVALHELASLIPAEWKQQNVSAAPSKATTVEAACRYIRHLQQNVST
Assay: relative binding free energy (BET-seq); higher = weaker binding
Conditions: reference: library average

Row | Sequence | relative binding free energy
1 | GAAAACACGTGTAGGT | 0.22 kcal/mol
2 | TAGGGCACGTGATCGG | -0.09 kcal/mol
3 | TGATTCACGTGAAAGG | 0.38 kcal/mol
4 | AAGTGCACGTGGTATA | -0.2 kcal/mol
5 | TGATGCACGTGGACAG | -0.02 kcal/mol
6 | GAGGTCACGTGTAAGA | 0.29 kcal/mol
7 | GGGTGCACGTGGTCGA | -0.07 kcal/mol
8 | ATTATCACGTGCATGT | -0.07 kcal/mol
9 | CGGAGCACGTGGTCGT | -0.09 kcal/mol
10 | GCGTGCACGTGTAGTA | -0.05 kcal/mol
11 | TGTTTCACGTGTCTAG | 0.21 kcal/mol
12 | TTGTTCACGTGGTCCT | 0.16 kcal/mol
13 | AGTGGCACGTGGTGAA | -0.2 kcal/mol
14 | AATGTCACGTGCTGGG | 0.14 kcal/mol
15 | AGAGGCACGTGGTGGG | -0.17 kcal/mol
16 | TTCGGCACGTGGCAAG | -0.17 kcal/mol
17 | AAATACACGTGTATGT | 0 kcal/mol
18 | TGATGCACGTGGTTCA | -0.09 kcal/mol
19 | TTGAGCACGTGGGTAA | -0.13 kcal/mol
20 | AGTTACACGTGTGATT | 0.13 kcal/mol
21 | GGCGTCACGTGTGAAG | 0.23 kcal/mol
22 | GTGGACACGTGCCTGG | 0.11 kcal/mol
23 | TGTGACACGTGACTGT | 0.02 kcal/mol
24 | TTACGCACGTGGAGTA | -0.05 kcal/mol
25 | TTTAGCACGTGCGGGG | -0.12 kcal/mol

Row | Sequence | relative binding free energy
26 | AAAGTCACGTGGAGTA | 0.11 kcal/mol
27 | GTTTACACGTGGTAGT | 0.25 kcal/mol
28 | CTGTACACGTGGTTGA | -0.01 kcal/mol
29 | ATCTACACGTGGGAGG | 0.1 kcal/mol
30 | CGGTGCACGTGGCTGT | -0.08 kcal/mol
31 | TTATTCACGTGTGTTT | 0.28 kcal/mol
32 | AGAGTCACGTGATGGG | 0.18 kcal/mol
33 | TGTCGCACGTGTGGTG | -0.04 kcal/mol
34 | GCCTGCACGTGTGGTG | -0.01 kcal/mol
35 | GAAGGCACGTGAAGAG | 0.33 kcal/mol
36 | TTGAGCACGTGTTTGT | -0.02 kcal/mol
37 | GTTCTCACGTGATTTT | 0.36 kcal/mol
38 | GGATACACGTGGGCTT | -0.06 kcal/mol
39 | CAATGCACGTGGTGTG | -0.21 kcal/mol
40 | GCCGTCACGTGGAGTG | 0.17 kcal/mol
41 | AATGTCACGTGTCTTG | 0.2 kcal/mol
42 | GAATTCACGTGTTGTG | 0.25 kcal/mol
43 | ATGATCACGTGCTATT | 0.14 kcal/mol
44 | GTGTTCACGTGTGCGC | 0.29 kcal/mol
45 | AGTGGCACGTGTAAGC | 0.07 kcal/mol
46 | TTACACACGTGTTGGG | -0.07 kcal/mol
47 | TTAGACACGTGGGTTG | -0.04 kcal/mol
48 | ATAGGCACGTGATTAT | 0.01 kcal/mol
49 | GCTTCCACGTGTGGTG | 0.25 kcal/mol
50 | GAATGCACGTGAGGTG | 0.23 kcal/mol

Row | Sequence | relative binding free energy
51 | AGTGGCACGTGTGTAA | -0.26 kcal/mol
52 | TGTATCACGTGGGATG | 0.03 kcal/mol
53 | TCGGACACGTGGTCGG | 0.03 kcal/mol
54 | TTGTTCACGTGGTGCT | 0.21 kcal/mol
55 | ATTCTCACGTGTCTTG | 0.23 kcal/mol
56 | GGGCTCACGTGTAGCT | 0.33 kcal/mol
57 | AGAAGCACGTGAGGCT | 0.29 kcal/mol
58 | TGATACACGTGTCATG | 0.02 kcal/mol
59 | AGTTGCACGTGAGAAA | 0.22 kcal/mol
60 | GTATACACGTGCTTGG | 0.02 kcal/mol
61 | CTATTCACGTGGGTGG | 0.02 kcal/mol
62 | GATAACACGTGATGTG | -0.05 kcal/mol
63 | TTGATCACGTGAGGAT | 0.38 kcal/mol
64 | TAGAGCACGTGGACGG | -0.04 kcal/mol
65 | TATTGCACGTGTCGTT | 0.1 kcal/mol
66 | AAGAGCACGTGTGGTG | -0.17 kcal/mol
67 | GAGGACACGTGGCGTT | 0.1 kcal/mol
68 | GAATGCACGTGGGTAA | -0.02 kcal/mol
69 | AGGTACACGTGAAGGT | 0.3 kcal/mol
70 | AGAGTCACGTGGTGTG | 0.1 kcal/mol
71 | CGAGTCACGTGAGGTT | 0.28 kcal/mol
72 | ATGGGCACGTGGGATG | -0.16 kcal/mol
73 | AATATCACGTGTGAGA | 0.2 kcal/mol
74 | TCTTGCACGTGAGGCT | 0.14 kcal/mol
75 | TACTTCACGTGGTATT | 0.18 kcal/mol

Row | Sequence | relative binding free energy
76 | CTTATCACGTGTAGTT | 0.14 kcal/mol
77 | ATGAGCACGTGATCGG | 0 kcal/mol
78 | TAATTCACGTGGGCGC | 0.26 kcal/mol
79 | TAGTCCACGTGGGTGG | -0.15 kcal/mol
80 | TGTCACACGTGTTGCG | 0.03 kcal/mol
81 | TTAAGCACGTGGTGTC | -0.21 kcal/mol
82 | GGGAGCACGTGATGGT | -0.01 kcal/mol
83 | ATATGCACGTGGGAAT | -0.12 kcal/mol
84 | ATGTTCACGTGTATGC | 0.08 kcal/mol
85 | GGAAGCACGTGCGTGG | -0.4 kcal/mol
86 | GAGAGCACGTGGTTTA | -0.11 kcal/mol
87 | TATGTCACGTGACGTA | 0.08 kcal/mol
88 | AATGTCACGTGGGTTA | -0.03 kcal/mol
89 | GTTTCCACGTGAGGTG | 0.39 kcal/mol
90 | GGAGTCACGTGTGGCA | 0.17 kcal/mol
91 | ATGGACACGTGCGTGC | 0.11 kcal/mol
92 | ATTTTCACGTGTGGAC | 0.34 kcal/mol
93 | GGTGGCACGTGTAAAT | 0.21 kcal/mol
94 | GGTAGCACGTGAGGAT | 0.24 kcal/mol
95 | TGCTTCACGTGTTGAT | 0.16 kcal/mol
96 | TTATTCACGTGTGTTA | 0.24 kcal/mol
97 | GGGCACACGTGGTATT | 0.11 kcal/mol
98 | TGGCGCACGTGCGGGA | -0.25 kcal/mol
99 | AGTAGCACGTGCTGTT | -0.17 kcal/mol
100 | GGTATCACGTGGTTGA | 0.06 kcal/mol

Row | Sequence | relative binding free energy
101 | TGATTCACGTGGGGGG | 0.14 kcal/mol
102 | GGTGTCACGTGAGTGC | 0.32 kcal/mol
103 | GGTACCACGTGGTGGA | -0.09 kcal/mol
104 | CGTATCACGTGGTGAA | 0.08 kcal/mol
105 | GGACTCACGTGAGGGT | 0.37 kcal/mol
106 | ATAGTCACGTGAGGCA | 0.22 kcal/mol
107 | GTGGTCACGTGTTTCG | 0.13 kcal/mol
108 | ATTAGCACGTGGTTAT | -0.15 kcal/mol
109 | GTGCCCACGTGTTGTG | -0.17 kcal/mol
110 | AACGTCACGTGTCGGT | 0.17 kcal/mol
111 | TTTTTCACGTGTAACT | 0.43 kcal/mol
112 | TTAACCACGTGTTGGG | -0.05 kcal/mol
113 | GGATACACGTGTCAGT | 0.14 kcal/mol
114 | TTGGACACGTGGTAGA | 0.02 kcal/mol
115 | GGTTTCACGTGACGTT | 0.38 kcal/mol
116 | GGCGGCACGTGGGATG | -0.03 kcal/mol
117 | GTATTCACGTGTTACG | 0.35 kcal/mol
118 | CTAGGCACGTGTGTCG | -0.01 kcal/mol
119 | GCCAGCACGTGGGGAG | -0.13 kcal/mol
120 | TTGTGCACGTGATCTT | 0.01 kcal/mol
121 | GTGGCCACGTGTGTGG | 0.06 kcal/mol
122 | GTGTTCACGTGCGTAA | 0.25 kcal/mol
123 | ATAATCACGTGAGGCG | 0.33 kcal/mol
124 | TTGTACACGTGTTGCG | -0.01 kcal/mol
125 | TAAGGCACGTGTCGGC | 0.07 kcal/mol

Row | Sequence | relative binding free energy
126 | CAGTCCACGTGAAGGT | 0.4 kcal/mol
127 | GTGGACACGTGCTGGG | -0.12 kcal/mol
128 | ATATACACGTGTTGTA | -0.16 kcal/mol
129 | GGGGTCACGTGCGGGG | 0.17 kcal/mol
130 | TGATGCACGTGATGTG | 0.07 kcal/mol
131 | TATAGCACGTGGGGTG | -0.18 kcal/mol
132 | CATGACACGTGTGTTA | -0.02 kcal/mol
133 | AGTTGCACGTGAGACG | 0.11 kcal/mol
134 | ATCATCACGTGTATTG | 0.15 kcal/mol
135 | GTTTACACGTGTGGCC | 0.36 kcal/mol
136 | TGTAGCACGTGGTCAA | -0.25 kcal/mol
137 | AGTTTCACGTGATTAT | 0.28 kcal/mol
138 | GCCGGCACGTGGTAGG | -0.16 kcal/mol
139 | AGTATCACGTGTCAGG | 0.02 kcal/mol
140 | TGATGCACGTGCGTTC | 0.04 kcal/mol
141 | AGTATCACGTGAGCTG | 0.38 kcal/mol
142 | AATATCACGTGTCGGT | 0.28 kcal/mol
143 | GATAGCACGTGGGGAA | -0.12 kcal/mol
144 | CGCATCACGTGGTTGT | 0.05 kcal/mol
145 | GGGTACACGTGGCAGT | 0.09 kcal/mol
146 | GGCTGCACGTGGCGGA | 0.1 kcal/mol
